The source gives no read counts; variants with many changes may rest on few reads.
B1: LINE1-mini (parent)
chain: GGCAGAGCUCAACACAGCGUGGCAAAGUGGCUGUGGCUAGACUGCC

Variants of: B1
Experiment: self-cleavage, relative activity (ratio to wild type); higher = more cleavage; in vitro, sequencing; the parent is a self-cleaving ribozyme

Row | Variant | self-cleavage
1 | A16U G29U U32G | 0.13
2 | G17C G22U C31U U34C G40A C45G | 0.02
3 | G17A G19U A24G G35A U38A | 0.06
4 | G17A G21U G30U | 0.12
5 | G17C C18U A25U C42U | 0.02
6 | G17A C23A U34G G44C | 0
7 | G17A C23U U28G | 0.06
8 | G17C A41C C46U | 0.03
9 | G17C G36U A41U | 0.08
10 | G17C G27C G36C C46G | 0.05
11 | G17C A26G A41U | 0.02
12 | G17C C42U C45U | 0.08
13 | G17A G22U G35U | 0.01
14 | G17A G22U G27A C46U | 0.37
15 | G17A G29U G30U | 0.23
16 | G17A A26G G33A | 0.01
17 | G17C G27C U28G | 0.55
18 | G17A G29A U38C | 0.06
19 | G17C U32C U38G | 0.03
20 | G17A C18A G21A A39U | 0.13
21 | G17C C37A G40U U43A | 0.02

Row | Variant | self-cleavage
22 | G17A A26U G30A | 0.28
23 | G17C A25C G27U U34G | 0.04
24 | G17C C23U C46A | 0.57
25 | G17A G30A A41U | 0.03
26 | G17C C23U G35A | 0.03
27 | G17C G22U U28C U43C | 0.06
28 | A16U G29U U34A | 0.11
29 | G17C U28A G30A C31G | 0.76
30 | G17A G19A A26U C37A C46U | 0.02
31 | A16U G19C G40C | 0.03
32 | G17A G21A A26U G29U | 0.11
33 | G17A C37A C45G C46G | 0.06
34 | A16U G35C G36U | 0.07
35 | G17A C31G U32G | 0.05
36 | G17C G21U G35U A41C | 0.04
37 | A16U U28G G35C | 0.01
38 | G17C G22U C42A | 0.08
39 | G17C G22U C42U | 0.36
40 | G17A U20A A41G | 0.05
41 | G17C G22U A39U | 1.5
42 | G17A G30A G35C U43A C45G | 0

Row | Variant | self-cleavage
43 | G17A U20A G21C U43A | 0
44 | A16U G30A U38C | 0.13
45 | A16U U20A G21C | 0.2
46 | A16U G35U C46G | 0.05
47 | A16U G22U G29A G30C | 0.33
48 | G17A C31A A39C | 0.01
49 | G17A C18A G36A | 0.05
50 | G17A C18A G30C | 0.46
51 | G17A G29C G33C C46A | 0.02
52 | A16U G44A C45A | 0.01
53 | G17C A25U G40A | 0.08
54 | G17C G19C A25G U32A G33A | 0.04
55 | G17A A24U A25C | 0.08
56 | G17A G19U U28G G36U C45A | 0.02
57 | G17A A39C G40U C45U | 0.01
58 | A16U G27A C31A | 0.03
59 | G17C C18U C31G | 0.17
60 | G17A U32A C42U | 0.02
61 | G17C G35U C45A | 0.18
62 | G17C A25U G33C U38G | 0.02
63 | G17A G30A G35U C42A | 0.01

Row | Variant | self-cleavage
64 | G17C A25U G29U G36C C37A U38C C46A | 0.06
65 | A16U G19C G30C A41U | 0.25
66 | G17C A25C G40C | 0.05
67 | G17C G29U U32A | 0.13
68 | G17A G19A G40U | 0.02
69 | G17C G29U C31G U34A C46U | 0.14
70 | G17A U28G G30U U34A G36U | 0.06
71 | G17A G22A C23U G29C | 0.15
72 | G17A A24U A39U A41G | 0.08
73 | G17C U28G G29C | 0.31
74 | G17A U34G A39G U43C | 0
75 | G17A C18A U38A | 0.04
76 | G17C G19U U20G G21U | 0.76
77 | G17A U34C G35A G40A | 0.19
78 | A16U G40U A41G | 0.11
79 | G17A G22U G27U U28A C37A | 0.06
80 | G17A U43C G44A | 0.02
81 | G17C U20G C42A C46A | 0.02
82 | G17C G21A A26C U38C | 0.29
83 | G17C G27U C31A | 0.56
